Experimental data reported in PubChem BioAssay AID938 (National Center for Advancing Translational Sciences (NCATS), 2007).
Hit rate of the full screen: of about 73,000 compounds, about 1,800 (2.5%) were called active. Inconclusive means that the source gave no clear call. Such entries were picked first, then a sample of the others. The call rests on the fitted dose curve; in most records, active means well fitted activation curve with a large enough effect; inconclusive means small, poorly fitted or top-dose-only effect; inactive means no such curve, though single readings can be large or run the other way. No potency is given beside an inconclusive call; the fits are too rough.

experiment: qHTS Assay for Agonists of the Thyroid Stimulating Hormone Receptor: Activators of Intracellular cAMP Concentrations in Parental HEK 293; conditions: parental HEK293 CNG cAMP sensor, membrane potential fluorescence; activation: at 57.1 µM (top of the series) unless noted; further: nearly all actives have a fitted effect of over 55% in size; on activation: % of control where 0% means no effect
How it was run: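 Parental HEK 293 cells stably expressing a modified CNG channel (no TSHR) report cAMP rise as membrane depolarization. Membrane potential dye with 100 uM RO 20-1724 was loaded for 60 min at room temperature, then compound added for 30 min; fluorescence read at 590 nm.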
Potency means the concentration at half of the fitted maximal effect; tags describe the fitted curve by direction and shape.

SMILES	Potency	activation
CCOC(=O)N1CCC(NC(=O)C2CCN(S(=O)(=O)c3cnc[nH]3)CC2)CC1	inconclusive [activator, single point]	
CC(=O)Nc1ccc(S(=O)(=O)Nc2ccc(S(=O)(=O)N3CCCCCC3)cc2)cc1		inactive: -3.68%
C[C@@H]1C[C@@H]2[C@H]3CCC4=CC(=O)C=C[C@]4(C)[C@]3(Cl)[C@@H](O)C[C@@]2(C)[C@@]1(O)C(=O)CO		inactive: 9.71%
COc1ccc(NC(=O)CCN2CCCCCC2)c(OC)c1	inconclusive [activator, partial curve]	
O=C(c1ccc(-c2ccccc2)cc1)N1CCC(C(=O)N2CCCC2)CC1	inconclusive [activator, single point]	
c1ccc(CNc2nc(-c3ccoc3)nc3ccccc23)cc1	inconclusive [activator, single point]	
O=C(O)[C@H]1C[C@H](C(=O)O)N1	inconclusive [activator, single point]	
COc1ccc(-c2nc3cnc(Oc4ccccc4)nc3n(C3CC3)c2=O)cc1	inconclusive [activator, single point]	
Cc1ccc(CCNC(=O)C2CCN(C(=O)c3sccc3-n3cccc3)CC2)cc1	inconclusive [activator, partial curve]	
COc1ccc(OC)cc1		inactive: -13.5%
OCCN1CCN(CCCN2c3ccccc3Sc3ccc(Cl)cc32)CC1	inconclusive [activator, single point]	
CC(=O)OC[C@@H]1O[C@@H](O/N=C2/C[C@@H](O)[C@@H](O)[C@@H]3[C@H]4C(=O)N(c5ccc(F)cc5F)C(=O)[C@@H]4CC[C@@H]23)[C@H](OC(C)=O)[C@H](OC(C)=O)[C@@H]1OC(C)=O		inactive: -0.859% [at 11.4 µM]
CCOC(=O)c1c(NC(=O)Cc2cccs2)sc(C(=O)N2CCCCC2)c1C	inconclusive [activator, single point]	
C/C(=C(/CCO)SSC[C@@H]1CCCO1)N(C=O)Cc1cnc(C)nc1N	inconclusive [activator, single point]	
Cc1onc(-c2ccccc2Cl)c1-c1nc(-c2ccccn2)no1	active: 31.6 µM	
Cc1nc2ccccc2c2oc(C(=O)N3CCc4ccccc4C3)cc12	inconclusive [activator, single point]	
CCN(CCNC(=O)c1cccc(N2CCCC2=O)c1)c1ccccc1	inconclusive [activator, single point]	
COCCN(CCOC)c1ncnc2c1cnn2-c1ccc(Cl)cc1		inactive: -14.8%
Cc1cc(NC(=O)c2cc(-c3ccncc3)nc3c(C)cccc23)no1	active: 31.6 µM	
NCCCCCCCCCCN	inconclusive [activator, single point]	
COc1ccccc1-c1cc(C(F)(F)F)nc(N2CCOCC2)n1	active: 20 µM	
CCN(CC)c1ccc(C(=O)OCC(=O)N2CCN(c3ccccc3)CC2)cc1	inconclusive [activator, single point]	
CCOc1ccc(OCC)c(NS(=O)(=O)c2cccc3nsnc23)c1		inactive: 15.2%

SMILES	Potency	activation
C1=C(CCNc2nnnn2-c2ccccc2)CCCC1	inconclusive [activator, partial curve]	
CC(C)CCNc1cc(=O)n(C)c(=O)n1C	inconclusive [activator, single point]	
CCOC(=O)c1cc2sccc2n1Cc1ccccc1	inconclusive [activator, single point]	
O=C(O)[C@@H]1CCN(Cc2oc(CO)cc(=O)c2O)C1		inactive: 6.04% [at 11.4 µM]
COc1ccc(-c2c(C)nn3c(N4CCN(Cc5ccccc5)CC4)cc(C)nc23)cc1OC	inconclusive [activator, single point]	
COC(=O)[C@@]1(Cc2ccc(OC)cc2)[C@H]2c3cc(C(=O)N4CCCC4)n(CCF)c3C[C@H]2CN1C(=O)c1ccccc1	active: 20 µM	
O=c1[nH]c2ccccc2c2ccccc12		inactive: -9.18%
CCCc1cc(COC)c(C#N)c(=O)[nH]1		inactive: 2.72% [at 11.4 µM]
COc1ccc(Cn2c(C3CC3)nc3ccc(NC(C)=O)cc3c2=O)cc1		inactive: 15.6%
CC1=C/C(=C\c2ccc3c(c2)OCO3)C(=O)S1	inconclusive [activator, single point]	
C=CCn1c(SCC(=O)Nc2ccc(N(C)C)cc2)nnc1-c1cccc(C)c1		inactive: -5.46%
CC(=O)N1CCN(c2ccc(Oc3ncnc4sccc34)cc2)CC1	inconclusive [activator, single point]	
Cc1cccc2c1nc(-c1ccccc1)n1nnnc21	inconclusive [activator, partial curve]	
C=CCn1c(SCC(=O)c2cc(C)n(Cc3cccs3)c2C)nnc1-c1ccncc1	inconclusive [activator, single point]	
COc1ccccc1NC(=O)CSc1nnc(C2CCCCC2)o1	inconclusive [activator, single point]	
CCc1c(C)c(C#N)c2nc3ccccc3n2c1N(C)C	inconclusive [activator, partial curve]	
C=C[C@H](N)CCC(=O)O	inconclusive [activator, single point]	
Cn1c(=O)c2cc(S(=O)(=O)N3CCN(c4cccc(C(F)(F)F)c4)CC3)ccc2n(C)c1=O	inconclusive [activator, partial curve, poor fit]	
COc1ccc(-c2noc(C3CCCN(C(=O)CCc4ccccc4)C3)n2)cc1 (stereo not given)	active: 25.1 µM	
CCCCN(CC)C(=O)c1ccc(Cl)c(Cl)c1	inconclusive [activator, partial curve]	
CCCCNc1nc(C)nc2c1nc(-c1ccccc1)n2CCCCN(CC)CC	inconclusive [activator, partial curve]	
CC(C)C(=O)N[C@@H]1CCCN1C(=O)/C=C\c1ccccc1		inactive: 0.509% [at 11.4 µM]
